In PMC6919601, “Identification of Plasmodium dipeptidyl aminopeptidase allosteric inhibitors by high throughput screening” (PLoS ONE, 2019):
Screen size: about 110,000 compounds; about 230 (0.21%) showed an effect of 50% or more. The list shows a part of the results.

target: DPAP1 (Plasmodium falciparum, UniProt Q8IIJ9); assay: primary screen, percent inhibition; read by cleavage of a fluorogenic dipeptide substrate; higher = more effect of the substance; parameters: species or system P. falciparum D10 trophozoite lysates; single well
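Further: 30 min substrate incubation versus DMSO and 10 µM JCP410 controls.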

Sequence of DPAP1 (Q8IIJ9 whole entry, looked up): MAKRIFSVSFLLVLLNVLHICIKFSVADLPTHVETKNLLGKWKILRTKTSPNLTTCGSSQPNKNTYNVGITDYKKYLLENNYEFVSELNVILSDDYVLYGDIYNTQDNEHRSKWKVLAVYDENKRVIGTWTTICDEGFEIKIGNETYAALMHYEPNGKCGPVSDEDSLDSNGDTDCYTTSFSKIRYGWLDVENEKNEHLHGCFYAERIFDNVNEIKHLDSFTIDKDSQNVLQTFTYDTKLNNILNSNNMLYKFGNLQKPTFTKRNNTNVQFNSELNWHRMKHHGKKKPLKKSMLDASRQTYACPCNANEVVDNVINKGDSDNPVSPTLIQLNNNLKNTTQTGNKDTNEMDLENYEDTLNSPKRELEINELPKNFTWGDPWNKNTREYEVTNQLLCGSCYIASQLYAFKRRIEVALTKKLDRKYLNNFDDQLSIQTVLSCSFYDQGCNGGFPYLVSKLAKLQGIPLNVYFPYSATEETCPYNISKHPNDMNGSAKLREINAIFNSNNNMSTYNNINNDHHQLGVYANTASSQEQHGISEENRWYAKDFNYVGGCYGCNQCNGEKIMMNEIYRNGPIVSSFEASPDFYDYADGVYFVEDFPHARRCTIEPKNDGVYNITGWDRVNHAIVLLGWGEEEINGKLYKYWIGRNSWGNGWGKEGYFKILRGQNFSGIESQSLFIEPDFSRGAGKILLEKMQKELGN

Structure (SMILES) | % Inhibition @ 10 uM [%]
Cc1cc(Br)cc(C)c1NC(=O)C1CCCN1C(=O)c1cccs1 (stereo not drawn) | -3.75
CCC(Cc1ccccc1)NC(=O)C1CCN(c2nn3c(=O)cc(C)nc3s2)CC1 (stereo not drawn) | 4.55
COc1ccc(CN2CCSCC2)cc1OC | 4.57
CCOC(=O)N1CCN(C(=O)CN(Cc2ccc(Cl)cc2)S(=O)(=O)c2ccccc2)CC1 | 0.291
O=C(NCCc1ccccc1)C(=O)c1c(-c2ccccc2)[nH]c2ccccc12 | -4.49
CCCc1c(C)nc2c(OC)cccc2c1Cl | -3.09
O=S1(=O)CC(O)C(S(=O)(=O)c2ccccc2)C1 (stereo not drawn) | -2.66
CCOC(=O)N1CCC(NC(=O)c2ccc(CS(=O)(=O)c3c(Cl)cccc3Cl)o2)CC1 | -4.96
CC1(C)CC2=Nc3ccccc3NC(c3ccc(Cl)cc3)C2=C(O)C1 (stereo not drawn) | -1.05
Nc1cc(-c2ccccc2)nn1S(=O)(=O)c1cccc2nsnc12 | -9.6
O=c1ccc2cc(S(=O)(=O)N3CCOCC3)ccc2o1 | 1.72
O=C(c1scc2c1CCCC2)N1CCN(c2nc3ccccc3o2)CC1 | -1.98
O=C1NC(=O)N(c2ccc(Br)cc2)C(=O)/C1=C/C=C/c1ccccc1 | -0.712
CC(C)(C)c1ccc(S(=O)(=O)N2CCc3nc4ccccc4c(C(=O)O)c3C2)cc1 | 2.05
Cc1ccc(C(=O)Nc2ccc(C#N)cc2)cc1 | 5.25
CCOc1ccc(/C=C2\CCc3cc(OC)ccc3C2=O)cc1 | -1.31
COCCNC(=O)c1cnn2c(C)c(Cc3cc(C)ccc3C)c(C)nc12 | -2.14
COc1ccc(-c2onc(C)c2C)cc1S(=O)(=O)NCC1CCN(Cc2ccc(C)cc2)CC1 | -3.42
CC(=O)OC(C#CCN1CCCC1)c1ccccc1 (stereo not drawn) | 0.177
COc1ccc(CN2CCN(Cc3c[nH]c4ccccc34)CC2)cc1OC | -5.29
CC[C@@H](C)[C@H](NC(=O)c1cccc(N)c1)C(=O)N[C@@H](CCc1ccccc1)C(=O)COCc1ccccc1 | -7.36
Cc1ccc(-n2nc3c(N4CCC(C(=O)NCC5CCCO5)CC4)nnc(C)c3c2C)cc1 (stereo not drawn) | 3.74
C=CCSc1nc(=O)c(CC)c(O)n1CC=C | -2.6
COc1cc(C(=S)N2CCOCC2)ccc1O | -2.18
Cc1ccc(S(=O)(=O)Nc2ccc3[nH]c(-c4cccn4C)nc3c2)cc1 | 2.5

Structure (SMILES) | % Inhibition @ 10 uM [%]
CCc1nnc(SCc2nc(-c3ccc(OC)cc3)oc2C)c2cc3occc3n12 | 0.616
Cc1nc2c3ccccc3nc(SCc3cccc(C(F)(F)F)c3)n2n1 | 0.0592
O=C1c2cccnc2C(=O)N1Cc1ccc(S(=O)(=O)NC2CCCc3ccccc32)cc1 (stereo not drawn) | 6.91
COC(=O)c1sc(-c2ccccc2)cc1NC(=O)c1c(F)cccc1F | -6.04
COc1nc(N(C)C)nc(N2C(=N)N(c3ccc(Cl)c(Cl)c3)C(=O)C2C)n1 (stereo not drawn) | -1.32
COc1ccc2nc(NC(=O)c3ccccc3C(=O)O)sc2c1 | 1.59
COc1ccc(C2C=C(c3ccc(Cl)cc3)NC(=O)C2C#N)cc1 (stereo not drawn) | -4.62
CC(C)OC(=O)c1sc2nc3c(cc2c1N)CN(C)CC3 | 7.05
CCOC(=O)c1ccc2c(c1)c(C)c(C)n2C | -0.0309
CCN(CC)CCN(CC)CC1CCCCC1 | 1.26
CCOc1ccc(C2CC(c3ccc(Cl)cc3Cl)Nc3nc(N)nn32)cc1 (stereo not drawn) | -2.92
N#Cc1c(O)nnc(-c2ccccc2)c1-c1ccccc1 | -0.413
CCn1nccc1C(=O)Nc1cc(F)ccc1C | 1.61
Cc1ccc(S(=O)(=O)Nc2ccn(-c3ccccc3)n2)cc1 | -1.76
COc1ccc(-c2nc(CSCC(=O)NC3CCCc4ccccc43)c(C)o2)cc1 (stereo not drawn) | -2.85
O=S(=O)(Nc1cccc(-c2cn3ccsc3n2)c1)c1ccc2ccccc2c1 | 3.05
CCOc1cc(C(=O)NCc2nc(-c3ccc(Cl)cc3)no2)cc(OCC)c1OCC | -1.22
c1ccc(CCN2CCC(NC3CCCC3)CC2)cc1 | -0.0908
O=C(O)COc1ccc(/C=C2\SC(=O)N(c3cccc(Cl)c3)C2=O)cc1 | 6.4
C=CCc1ccccc1OCC(O)CN1CCN(CCN2C(=O)c3cccc4cccc(c34)C2=O)CC1 (stereo not drawn) | 3.06
O=C(NCc1ccco1)c1nn2c(c1Cl)NC(c1cccs1)CC2C(F)(F)F (stereo not drawn) | -2.87
CCCc1[nH]nc2c1C(c1cncc(-c3ccc(F)cc3)c1)C(C#N)=C(N)O2 (stereo not drawn) | -4.6
CCc1ccc(C2C3=C(CC(C)(C)CC3=O)OC3=C2C(=O)CC(C)(C)C3)cc1 | 2.3
CCSc1nc(O)cc(=O)n1-c1ccccc1 | -3.67
CCOc1ccccc1-c1nc(O)c2c(n1)Oc1ccccc1C2 | 0.655

Structure (SMILES) | % Inhibition @ 10 uM [%]
CC(C)c1ccc(-c2csc(NC(=O)C3C4CCC(C4)C3C(=O)O)n2)cc1 (stereo not drawn) | 2.79
COc1ccc(CC(C)N[C@H]2CCCCNC2=O)cc1 (stereo partly drawn) | 1.88
O=C(/C(=C/c1ccccc1)c1nc2ccccc2[nH]1)c1ccccc1 | -3.35
CC(C)c1ccc(OCC(=O)N(Cc2ccccc2F)C2CCS(=O)(=O)C2)cc1 (stereo not drawn) | 3.62
O=C(c1ccccc1)N1CCCC2CCCCC21 (stereo not drawn) | 1.9
Cc1cccc(-c2cc(C(=O)Nc3ccncc3)c3ccccc3n2)c1 | 7.27
CCOCCCNC(=O)C(c1ccccc1)N(Cc1cccs1)C(=O)CNC(C)=O (stereo not drawn) | -1.2
Cn1c(=O)n(C)c2cc(S(=O)(=O)N3CCCCC3)ccc21 | -0.173
Cc1cc(O)n2nc(NCc3ccccc3F)nc2n1 | -4.19
NC(=O)C1CCN(C2CCCCCC2)CC1 | 1.88
O=C(NCc1ccc(F)cc1)c1nc(O)c2nnn(Cc3cccs3)c2n1 | -3.64
CCCS(=O)(=O)N1CCC(C(=O)Nc2cccc(Cl)c2)CC1 | -2.82
Cc1cc(OCC(=O)Nc2ccc(S(=O)(=O)N(C)C)cc2)cc(C)c1Cl | -1.89
CC1=C(CCN2CCN(C=O)CC2)C(C)(C)CCC1 | -6.62
COc1ccc(S(=O)(=O)N2CCC(NC(=O)NCC3CCCCC3)CC2)cc1 | -2.84
CC1CCCCC1N(C)C1CCN(CCCNC(=O)/C=C/c2ccccc2Cl)CC1 (stereo not drawn) | -1.27
CCOC(=O)C1=C(CN2CCn3cccc3C2C)NC(=O)NC1c1ccc(OC(C)C)cc1 (stereo not drawn) | 5.58
Cc1cc(NC(=O)Cn2ncc3c4ccccc4n(C)c3c2=O)no1 | 1.15
Cc1ccc(C2OC3(C(=O)c4ccccc4C3=O)C3C(=O)N(c4ccc(Br)cc4)C(=O)C23)cc1 (stereo not drawn) | -3.79
Cc1cccc(C)c1-c1ccc(S(=O)(=O)N[C@@H](CC(C)C)C(=O)NCC#N)cc1 | -6.98
N#C/C(=C\c1ccccc1C(F)(F)F)c1nc(O)c2ccccc2n1 | -6.6
O=CN1CCN(C2Cc3ccccc3C2)CC1 | 1.88
Cc1ccc(-n2ncc3c2ncn2nc(Cc4ccccc4)nc32)cc1 | 0.569
COc1ccc(CN2CCN(c3ccc(C(C)=O)cc3)CC2)cc1C | -2.36
COc1ccc(-c2csc(/C(C#N)=C/c3ccc(C)s3)n2)cc1 | 1.37

Structure (SMILES) | % Inhibition @ 10 uM [%]
CCN(CC)c1cc(-c2ccccc2)nc(-c2ccccc2)n1 | 0.247
CC(=O)c1c(C)oc2c1cc(NS(=O)(=O)c1ccc(C)cc1)c1ccccc12 | 0.878
c1ccc(CCNC2CCCCCCC2)nc1 | -1.75
COc1cccc(-c2nc(SCC(=O)NCC3CCCO3)c(-c3ccccc3)[nH]2)c1 (stereo not drawn) | -5.27
Cc1cc(/C=C2\NC(=O)NC2=O)c(C)n1-c1ccc(OCc2ccc(Br)cc2)cc1 | 14.5
Oc1ccc2ccccc2c1[C@@H]1CCC2=NCCCN21 | 2.13
CC(C)CCn1c(CN2CCCCC2)nc2ccccc21 | -1.31
Cc1ccccc1NC(=O)COc1ccc([N+](=O)[O-])cc1 | -2.66
CCCCNS(=O)(=O)c1ccc2nc(-c3cccnc3)cc(C(=O)NCCCN(CC)CC)c2c1 | -6.91
Cc1cc(C)n2nc(SC(C)C(=O)N3CCC4(CC3)OCCO4)nc2n1 (stereo not drawn) | -0.519
Cc1cc(C(=O)CSc2n[nH]c(N)n2)c(C)n1-c1cc(Cl)ccc1Cl | -7.62
CCCCN1CCC(O)(c2ccccc2)C(C(=O)c2ccccc2)C1 (stereo not drawn) | -9.45
Cc1ccc(C)c(CN(C)CCN(C)C)c1 | 1.04
Cc1ccc(Cn2c(C)c3cnn(CC(=O)NCc4ccc(Cl)cc4)c(=O)c3c2C)cc1 | -0.447
CN(CC(=O)NCc1ccccc1)S(=O)(=O)c1cc(Cl)ccc1Cl | -1.61
O=C(NC1CCCc2ccccc21)C1CCN(c2ncnc3c2nc2n3CCCCC2)CC1 (stereo not drawn) | 5.05
CC(=O)N1CCN(c2ccc(NC(=O)c3cccc4c(Br)cccc34)cc2)CC1 | 0.0974
CC12CCC(C(=O)N(CNc3ccccc3)C1=O)C2(C)C (stereo not drawn) | -1.32
COc1ccc(/N=C/C2=C(O)C(C)(C)OC2(C)C)cc1 | -5.34
COc1ccc(S(=O)(=O)N2CCC(c3nnc(-c4ccccc4OC)o3)CC2)cc1OC | -1.08
COc1ccc(C(=O)N2CCN(Cc3ccc(SC)cc3)CC2)cc1 | -1.08
Cc1ccnc(N2COc3ccc4c(C)cc(=O)oc4c3C2)c1 | -2.3
CC(C)(C)NC(=O)CCc1nc(-c2ccccc2)no1 | -3.12
N#CCNC(=O)[C@H](Cc1cc(I)c(O)c(I)c1)NC(=O)c1ccc(-c2csc(Nc3ccncc3)n2)cc1 | -1.41
